Test results from article PMC11603075 (Communications Biology, 2024).

Biological target: T1, KDM4E (Homo sapiens, UniProt B2RXH2)
T1 construct: KDM4E1–337; made in house; host or cells: E. coli
T1 sequence (B2RXH2 1-337): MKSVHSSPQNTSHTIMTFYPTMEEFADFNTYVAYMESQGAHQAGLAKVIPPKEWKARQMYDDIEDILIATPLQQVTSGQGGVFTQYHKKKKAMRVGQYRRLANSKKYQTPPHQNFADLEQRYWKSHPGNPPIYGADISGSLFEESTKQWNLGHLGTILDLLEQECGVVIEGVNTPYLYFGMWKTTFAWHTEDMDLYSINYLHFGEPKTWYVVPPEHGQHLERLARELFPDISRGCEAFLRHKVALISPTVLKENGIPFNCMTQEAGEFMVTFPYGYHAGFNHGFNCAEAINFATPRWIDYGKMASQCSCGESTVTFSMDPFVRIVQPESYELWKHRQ
Experiment: Specific hydroxylation activity of KDM4E
Type: biochemical
Method: Fig. 3 KDM4E-catalysed hydroxylation occurs at Arg-20 on histone H2a peptide. a LC–MS/MS analysis of H2a(1–20) after KDM4E treatment. Two potential hydroxylation sites, R17 and R20, were identified, with the latter more likely (Supplementary Fig. 9). b Peptide variant studies support Arg-20 hydroxylation; specific activities: H2a(1–20), 0.65 nmol min^−1 mg^−1 SD: 0.073; H2a(1–20) with a C-terminal carboxylic acid (indicated with an -OH), no activity; H2a(1–20)R20A, no activity; H2a(1–20)R20K*, no activity; H2a(1–20)R20Kme3*, 0.44 nmol min^−1 mg^−1 SD: 0.04; H2a(1–20)R3me2a*, 0.51 nmol min^−1 mg^−1 SD: 0.05; H2a(1–20)R3A, 0.37 nmol min^−1 mg^−1 SD: 0.002; H2a(1–21)*, 0.65 nmol min^−1 mg^−1 SD 0.02; H2a(1–25, 0.35 nmol min^−1 mg^−1 SD: 0.044; and H2a(10–29), 0.02 nmol min^−1 mg^−1 SD: 0.013. Measurements employed MALDI–TOF MS except when labelled with*, which employed LC–MS (Supplementary Fig. 10 for representative MS data). n = 3 independent assays. c KDM, RDM and hydroxylation (+16 Da) activities of KDM4E are sequence and context dependent. Histone peptides (H2a, H3, H4) and variants (wild type residue in red, replaced with either K, Kme3, R or Rme2a) were incubated with KDM4E and analysed on MALDI–TOF MS. KDM, RDM and hydroxylation (+16 Da) were detected in some but not all peptides (Supplementary Fig. 10 for representative MS data). (−) No mass changes observed. n = 3 independent assays. See Supplementary Table 6 for conditions. TEXT PRINTED IN THE PICTURE: (c) H2a: K/R replacement K: -; K/R replacement Kme3: KDM/ROH; K/R replacement R: ROH; K/R replacement Rme2a: KDM/ROH | (c) H3: K/R replacement K: -; K/R replacement Kme3: KDM; K/R replacement R: -; K/R replacement Rme2a: RDM | (c) H4: K/R replacement K: -; K/R replacement Kme3: -; K/R replacement R: -; K/R replacement Rme2a: RDM DOUBTS OF THE COPYIST ABOUT THIS PICTURE: Panel c: the table cells are qualitative activity classes (KDM, RDM, ROH, -) for peptide variants, not numbers; it is uncertain whether they count as results. / Panel b: the bar chart prints no values beside the bars, so nothing was taken from it.
MS-based screening assays with peptides and calf thymus histones were as reported; see Supplementary Table 6 for conditions. Time course assays were based on reported procedures. In brief, equal volumes of the enzyme and substrate solutions were combined to initiate the reaction; 10 µL of 2% (v/v) formic acid (HCOOH) in ddH2O or 100% methanol was added to 10 µL of the reaction mixture to quench reactions at different time points. Unless otherwise stated, time course assays were carried out in triplicate. In some cases, LC–MS was used instead of MALDI-TOF MS to avoid a MALDI matrix induced artefact with the hydroxylated product (Supplementary Fig. 16).
Data collected from time course assay(s) were used to plot the % conversion vs time (min) using GraphPad Prism5 version 5.04; the resultant slopes were used to fit a line with linear regression to the first-order region of the reaction. The resultant gradient was then converted from % product formation min^−1 to amount of peptide converted (demethylation and / or hydroxylation) in µM.
Supplementary Figure 17 Comparison of specific hydroxylation activities of KD M4E with H2a(1–20) when anal ysed by MALDI-TO F MS or LC–MS. Comparison of specific activities for KDM4E catalysed hydroxylation of H2a(1–20) when analysed with MALDI-TOF MS or LC–MS ([…] SD: 0.073 and 0.65 nmol·min−1·mg− 1 SD: 0.01 respectively). n = 3 (independent assays). See Supplementary Table 6 for assay […]
(also on this page, place not known: KDM4E H2a(1 –20) analysed MALDI -TOF LC –MS nmol·min −1·mg−1 nmol·min−1·mg−1 0.8specific activity (nmol·min-1·mg-1)) […]
[ E nz ym e] [Peptide] [2OG] [Ascorbate] [(NH4)2F e(S O4)2] [TCEP] Buffer pH7.5 Enzyme Cognate substrate (mM) (mM) (mM) (mM) (mM) (mM) [HE PE S]
Supplementary Table 6 Summary of MS assay conditions for substrate screening. These conditions […]

Ac - SGR [ me 2a ] GKQ GGKAR AKAKT R SSR [H2a(1–20)R3me2a, H2a(1–20)R3me2a without a biotin tag]
specific activity (hydroxylation) (Figure 3b, LC–MS (*), replicate 1): 0.4739 nmol/min/mg
specific activity (hydroxylation) (Figure 3b, LC–MS (*), replicate 2): 0.5839 nmol/min/mg
specific activity (hydroxylation) (Figure 3b, LC–MS (*), replicate 3): 0.4739 nmol/min/mg
extent of hydroxylation (in words) (KDM4E, relative to H2a(1–20)): substantial reduction in hydroxylation activity was not observed
specific activity (hydroxylation) (LC–MS (marked *), mean of n = 3, SD: R20Kme3 0.04, R3me2a 0.05, H2a(1–21) 0.02): 0.51 nmol/min/mg
